# PubChem BioAssay AID624417 (National Center for Advancing Translational Sciences (NCATS), 2012)
# Among all 410,000 compounds or so, about 6,400 (1.6%) were called active. The inconclusive results got no clear call from the source; some entries with a clear call stand among them for comparison. Calls come from the whole dose curve; as a rule, active = well fitted inhibition curve with a large enough effect; inconclusive = small, poorly fitted or top-dose-only effect; inactive = no such curve, though single readings can be large or run the other way. Potencies of inconclusive entries are doubtful fits and often do not repeat.
# Molecular target: Glucagon-like peptide 1 receptor (Homo sapiens) (UniProt P43220)
# Experiment: qHTS of GLP-1 Receptor Inverse Agonists (Inhibition Mode); note: nearly all actives have a fitted effect of over 55% in size
# Conditions: HEK293 GLP-1R CRE-luciferase, luminescence, 24 h, GLP-1R form is constitutively active; activity change, negative = inhibition: at 38.3 µM (top of the series) unless noted
# Procedure, shortened: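 Using stably transfected HEK293 (constitutively active GLP-1R, cAMP-luciferase reporter), compounds were incubated 24 hr and luciferase measured by luminescence.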
# % is set by controls: 0 for no effect and ±100 for the full control effect; potency is the fitted concentration of half-maximal effect; tags give direction and shape of the fitted curve.
# UniProt P43220, sequence (P43220 whole entry, looked up): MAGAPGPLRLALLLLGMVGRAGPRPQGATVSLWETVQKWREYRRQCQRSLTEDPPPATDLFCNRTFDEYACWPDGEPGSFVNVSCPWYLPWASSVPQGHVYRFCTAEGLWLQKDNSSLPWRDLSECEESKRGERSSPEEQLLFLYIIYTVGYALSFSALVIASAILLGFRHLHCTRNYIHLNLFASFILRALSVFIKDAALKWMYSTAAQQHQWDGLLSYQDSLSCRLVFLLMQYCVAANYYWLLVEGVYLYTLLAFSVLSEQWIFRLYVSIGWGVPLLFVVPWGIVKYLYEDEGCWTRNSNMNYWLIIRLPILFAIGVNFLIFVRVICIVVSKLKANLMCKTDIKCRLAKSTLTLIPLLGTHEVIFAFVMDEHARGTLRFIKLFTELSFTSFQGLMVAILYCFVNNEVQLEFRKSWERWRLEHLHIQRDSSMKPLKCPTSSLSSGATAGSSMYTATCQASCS
Compound,Potency,"activity change, negative = inhibition"
Cc1ccc(NC(=O)COc2ccccc2CNC(C)(C)CC(C)(C)C)cc1,"inconclusive: 10 µM [inhibitor, partial curve, poor fit]",–
CS(=O)(=O)N(CC(=O)N/N=C/c1cccs1)c1cccc(Cl)c1Cl,"inconclusive: 17.8 µM [inhibitor, partial curve, poor fit]",–
Nc1c(C(=O)O)sc2nc(-c3ccccc3)cc(-c3ccc(F)cc3)c12,"inconclusive: 12.6 µM [inhibitor, partial curve, poor fit]",–
O=C(COc1ccc(Cl)cc1Cl)N1CCN(c2ccccn2)CC1,"inconclusive: 11.2 µM [inhibitor, partial curve, poor fit]",–
Cc1ccc(NNC(=O)c2snnc2C)cc1Cl,"inconclusive: 28.2 µM [inhibitor, single point]",–
CCOc1cc(CNc2ccc(N3CCCC3)cc2)cc(Cl)c1OC,"inconclusive: 28.2 µM [inhibitor, single point]",–
CCc1ccc(N(C(=O)c2csnn2)C(C(=O)NCc2ccccc2)c2ccco2)cc1 (stereo not given),"inconclusive: 12.6 µM [inhibitor, partial curve, poor fit]",–
Cn1c(Cn2c3ccccc3c3ccccc32)n[nH]c1=S,"inconclusive: 31.6 µM [inhibitor, single point]",–
Cc1ccc(N2C(=O)CN(Cc3cccs3)C2=S)cc1C,–,inconclusive: -31.6% [inhibitor] [at 7.66 µM]
CCOC(=O)c1cnc(SCC(=O)c2ccc(C)cc2)nc1N,inactive,–
Cc1nc(NC(=O)c2c(-c3ccccc3)c(-c3ccccc3)nn(C)c2=O)sc1C,"inconclusive: 11.2 µM [inhibitor, single point]",–
COCCCNC(=O)CSc1nc2cc3c(cc2c(=O)n1CCCCCC(=O)NCc1ccc2c(c1)OCO2)OCO3,inactive,–
Cc1ccc(NC(=O)C(C)SCc2ccccc2)cc1 (stereo not given),"inconclusive: 6.31 µM [inhibitor, partial curve]",–
N#Cc1cc(C(=O)c2ccccc2O)cn(-c2ccc(Cl)cc2)c1=O,"inconclusive: 8.91 µM [inhibitor, partial curve, poor fit]",–
Cc1ccc(C(C[N+](=O)[O-])c2c(-c3ccccc3O)[nH][nH]c2=O)cc1 (stereo not given),"inconclusive: 11.2 µM [inhibitor, partial curve, poor fit]",–
COc1ccc(C(NC(=O)C(C)C)c2c(O)ccc3ccccc23)cc1 (stereo not given),"inconclusive: 28.2 µM [inhibitor, single point]",–
CC(Nc1ccc2c(c1)OCCO2)C(=O)N1c2ccccc2CC1C (stereo not given),"inconclusive: 10 µM [inhibitor, partial curve]",–
COc1cccc(N2CCN(CC(=O)Nc3ccccc3C(=O)NCc3ccccc3)CC2)c1,"inconclusive: 28.2 µM [inhibitor, single point]",–
Cc1ccc(CCNC(=O)C2CCCN(S(=O)(=O)N3CC(C)CC(C)C3)C2)cc1 (stereo not given),"inconclusive: 1.12 µM [inhibitor, full curve, poor fit]",–
CCSc1nnc(NC(=O)CSc2nccn2-c2cccc(C)c2C)s1,"inconclusive: 10 µM [inhibitor, partial curve, poor fit]",–

Compound,Potency,"activity change, negative = inhibition"
CCc1nnc(NC(=O)c2sc3nc4c(cc3c2N)CCCCCC4)s1,"inconclusive: 10 µM [inhibitor, single point]",–
O=C(NCc1ccccc1)C(c1ccncc1)n1c(=O)c(-c2cc3ccccc3[nH]2)nc2ccccc21 (stereo not given),"inconclusive: 11.2 µM [inhibitor, partial curve, poor fit]",–
Cc1ccc(S(=O)(=O)N2[C@@H](Cc3ccccc3)CO[C@H]2CC(=O)OCc2ccccc2)cc1,"inconclusive: 11.2 µM [inhibitor, partial curve, poor fit]",–
CCOC(=O)CNC(=O)C1(/C=C/c2ccccc2)CC(=O)N1c1ccc(C)cc1 (stereo not given),"inconclusive: 28.2 µM [inhibitor, single point]",–
CCOC(=O)c1[nH]cnc1C(=O)Nc1ccc(C)cc1,inactive,–
CCc1c(C)sc2c1CCN(C(=O)Nc1cc(C)cc(C)c1)C2c1ccccc1 (stereo not given),"inconclusive: 7.94 µM [inhibitor, partial curve, poor fit]",–
CC(C)Cc1ccc(C(C)C(=N)N)cc1 (stereo not given),"inconclusive: 14.1 µM [inhibitor, single point]",–
COc1ccc(NC(=S)NC(NC(=O)c2cccc(C)c2)C(Cl)(Cl)Cl)c([N+](=O)[O-])c1 (stereo not given),active: 8.91 µM,–
COc1ccc(CNC(=O)CN2C(=O)COc3ccc(S(=O)(=O)N4CCC(C)CC4)cc32)cc1,"inconclusive: 11.2 µM [inhibitor, single point]",–
Cc1nn2c(CN(C(=O)CN3CCOCC3)c3ccccc3)nnc2c2ccccc12,inactive,–
Fc1ccccc1-c1nc(NCC2CC2)nc2ccsc12,"inconclusive: 28.2 µM [inhibitor, single point]",–
O=C(CSC1=NCCS1)Nc1ccnc2ccccc12,inactive,–
COCCCN1C(=O)c2[nH]nc(-c3ccccc3O)c2C1c1ccc(OCc2ccccc2)cc1 (stereo not given),"inconclusive: 12.6 µM [inhibitor, partial curve, poor fit]",–
Cc1ccccc1OCC(O)COc1ccccc1C,"inconclusive: 11.2 µM [inhibitor, partial curve, poor fit]",–
O=C(CSc1ccc(-c2ccc(Br)cc2)nn1)NCC1CCCO1 (stereo not given),inactive,–
CCC/C=C(\CCC)C(NC(=O)OCC(C)C)c1ccc(C(=O)OC)cc1 (stereo not given),"inconclusive: 14.1 µM [inhibitor, partial curve, poor fit]",–
CCOC(=O)c1c(-c2ccc(C)cc2)csc1NC(=S)NC(=O)c1ccccc1,"inconclusive: 31.6 µM [inhibitor, single point]",–
CC(C)(C)OC(=O)NCCc1nnc(SCc2ccccc2Cl)o1,inactive,–
O=C(O)COc1ccc2nsnc2c1Cl,"inconclusive: 28.2 µM [inhibitor, single point]",–
CC(Oc1ccc(F)cc1)c1nnc(SCC(=O)N(c2ccccc2)C2CCS(=O)(=O)C2)o1 (stereo not given),"inconclusive: 11.2 µM [inhibitor, single point]",–
